Data taken from US10010614B2, “Derivatives of GLP-1 like peptides, and uses thereof” (Novo Nordisk A/S, priority 2013, dated 2018).
For at least one compound, name, drawing or mass did not settle the structure. Numbered stars: 1 amine (or outer) side, 2 acyl side, 3 side chain; on linkers, the order of the positions; unused ones are H or OH. Square brackets hold non-standard residues; d marks the D form. Side chains are listed from the residue outwards. Peptide text beside a SMILES is read from it. * marks the point of attachment. C20 diacid = O=C(O)CCCCCCCCCCCCCCCCCCC(=O)*; γGlu = O=C(O)[C@H](CCC(=O)[*:2])N[*:1]; Trx = NC[C@H]1CC[C@H](C(=O)O)CC1; PEG4 = NCCOCCOCCOCCOCCC(=O)O; AEEA = NCCOCCOCC(=O)O; Aib = CC(C)(N)C(=O)O

Test system: db/db mice
Test: Pharmacodynamic single-dose study in db/db mice (blood glucose and body weight)
Assay type: in vivo
Settings: single s.c. dose 30 nmol/kg (Examples 1-8) or 10 nmol/kg (Example 10); for % change in body weight 48 h: 48 h vs basal; for % change in blood glucose 48 h: 48 h vs basal level; for % change in body weight 96 h: 96 h vs basal; for % change in blood glucose 96 h: 96 h vs basal level

## CC[C@H](C)[C@H](NC(=O)[C@H](Cc1ccccc1)NC(=O)[C@H](CCC(=O)O)NC(=O)[C@H](CCCNC(=N)N)NC(=O)[C@H](C)NC(=O)[C@H](C)NC(=O)[C@H](CCC(N)=O)NC(=O)[C@H](CCC(=O)O)NC(=O)[C@H](CCC(=O)O)NC(=O)[C@H](CC(C)C)NC(=O)[C@H](Cc1ccc(O)cc1)NC(=O)[C@H](CO)NC(=O)[C@H](CO)NC(=O)[C@@H](NC(=O)[C@H](CC(=O)O)NC(=O)[C@H](CO)NC(=O)[C@@H](NC(=O)[C@H](Cc1ccccc1)NC(=O)[C@@H](NC(=O)CNC(=O)[C@H](CCC(=O)O)NC(=O)C(C)(C)NC(=O)[C@@H](N)Cc1c[nH]cn1)[C@@H](C)O)[C@@H](C)O)C(C)C)C(=O)N[C@@H](C)C(=O)N[C@@H](CCCCNC(=O)COCCOCCNC(=O)COCCOCCNC(=O)CC[C@H](NC(=O)[C@H]1CC[C@H](CNC(=O)CCCCCCCCCCCCCCCCCCC(=O)O)CC1)C(=O)O)C(=O)N[C@@H](CC(C)C)C(=O)N[C@H](C(=O)N[C@@H](CCCNC(=N)N)C(=O)NCC(=O)N[C@@H](CCCNC(=N)N)C(=O)NCC(=O)NCC(=O)NCC(=O)NCC(=O)N[C@@H](CO)C(=O)N[C@@H](CCCCNC(=O)COCCOCCNC(=O)COCCOCCNC(=O)CC[C@H](NC(=O)[C@H]1CC[C@H](CNC(=O)CCCCCCCCCCCCCCCCCCC(=O)O)CC1)C(=O)O)C(=O)O)C(C)C [Example 2] (H-H[Aib]EGTFTSDVSSYLEEQAAREFIAK([AEEA-AEEA-γGlu-Trx-C20 diacid])LVRGRGGGGSK([AEEA-AEEA-γGlu-Trx-C20 diacid])-OH)
  % change in body weight 48 h: −4%
  % change in blood glucose 48 h: −37%
  % change in body weight 96 h: −2%
  % change in blood glucose 96 h: −31%

## CC[C@H](C)[C@H](NC(=O)[C@H](Cc1ccccc1)NC(=O)[C@H](CCC(=O)O)NC(=O)[C@H](CCCNC(=N)N)NC(=O)[C@H](C)NC(=O)[C@H](C)NC(=O)[C@H](CCC(N)=O)NC(=O)[C@H](CCC(=O)O)NC(=O)[C@H](CCC(=O)O)NC(=O)[C@H](CC(C)C)NC(=O)[C@H](Cc1ccc(O)cc1)NC(=O)[C@H](CO)NC(=O)[C@H](CO)NC(=O)[C@@H](NC(=O)[C@H](CC(=O)O)NC(=O)[C@H](CO)NC(=O)[C@@H](NC(=O)[C@H](Cc1ccccc1)NC(=O)[C@@H](NC(=O)CNC(=O)[C@H](CCC(=O)O)NC(=O)C(C)(C)NC(=O)[C@@H](N)Cc1c[nH]cn1)[C@@H](C)O)[C@@H](C)O)C(C)C)C(=O)N[C@@H](C)C(=O)N[C@@H](Cc1c[nH]c2ccccc12)C(=O)N[C@@H](CC(C)C)C(=O)N[C@H](C(=O)N[C@@H](CCCNC(=N)N)C(=O)NCC(=O)N[C@@H](CCCNC(=N)N)C(=O)NCC(=O)N[C@@H](CCCCNC(=O)COCCOCCNC(=O)COCCOCCNC(=O)CC[C@H](NC(=O)[C@H]1CC[C@H](CNC(=O)CCCCCCCCCCCCCCCCCCC(=O)O)CC1)C(=O)O)C(=O)NCC(=O)NCC(=O)N[C@@H](CO)C(=O)N[C@@H](CCCCNC(=O)COCCOCCNC(=O)COCCOCCNC(=O)CC[C@H](NC(=O)[C@H]1CC[C@H](CNC(=O)CCCCCCCCCCCCCCCCCCC(=O)O)CC1)C(=O)O)C(=O)O)C(C)C [Example 3] (H-H[Aib]EGTFTSDVSSYLEEQAAREFIAWLVRGRGK([AEEA-AEEA-γGlu-Trx-C20 diacid])GGSK([AEEA-AEEA-γGlu-Trx-C20 diacid])-OH)
  % change in body weight 48 h: −5%
  % change in blood glucose 48 h: −58%
  % change in body weight 96 h: −3%
  % change in blood glucose 96 h: −22%

## CC[C@H](C)[C@H](NC(=O)[C@H](Cc1ccccc1)NC(=O)[C@H](CCC(=O)O)NC(=O)[C@H](CCCNC(=N)N)NC(=O)[C@H](C)NC(=O)[C@H](C)NC(=O)[C@H](CCC(N)=O)NC(=O)[C@H](CCC(=O)O)NC(=O)[C@H](CCC(=O)O)NC(=O)[C@H](CC(C)C)NC(=O)[C@H](Cc1ccc(O)cc1)NC(=O)[C@H](CCCCNC(=O)COCCOCCNC(=O)COCCOCCNC(=O)CC[C@H](NC(=O)[C@H]1CC[C@H](CNC(=O)CCCCCCCCCCCCCCCCCCC(=O)O)CC1)C(=O)O)NC(=O)[C@H](CO)NC(=O)[C@@H](NC(=O)[C@H](CC(=O)O)NC(=O)[C@H](CO)NC(=O)[C@@H](NC(=O)[C@H](Cc1ccccc1)NC(=O)[C@@H](NC(=O)CNC(=O)[C@H](CCC(=O)O)NC(=O)C(C)(C)NC(=O)[C@@H](N)Cc1c[nH]cn1)[C@@H](C)O)[C@@H](C)O)C(C)C)C(=O)N[C@@H](C)C(=O)N[C@@H](Cc1c[nH]c2ccccc12)C(=O)N[C@@H](CC(C)C)C(=O)N[C@H](C(=O)N[C@@H](CCCNC(=N)N)C(=O)NCC(=O)N[C@@H](CCCNC(=N)N)C(=O)NCC(=O)NCC(=O)NCC(=O)NCC(=O)N[C@@H](CO)C(=O)N[C@@H](CCCCNC(=O)COCCOCCNC(=O)COCCOCCNC(=O)CC[C@H](NC(=O)[C@H]1CC[C@H](CNC(=O)CCCCCCCCCCCCCCCCCCC(=O)O)CC1)C(=O)O)C(=O)O)C(C)C [Example 6] (H-H[Aib]EGTFTSDVSK([AEEA-AEEA-γGlu-Trx-C20 diacid])YLEEQAAREFIAWLVRGRGGGGSK([AEEA-AEEA-γGlu-Trx-C20 diacid])-OH)
  % change in body weight 48 h: −3%
  % change in blood glucose 48 h: −30%
  % change in body weight 96 h: −4%
  % change in blood glucose 96 h: −21%

## CC[C@H](C)[C@H](NC(=O)[C@H](Cc1ccccc1)NC(=O)[C@H](CCC(=O)O)NC(=O)[C@H](CCCNC(=N)N)NC(=O)[C@H](C)NC(=O)[C@H](C)NC(=O)[C@H](CCC(N)=O)NC(=O)[C@H](CCC(=O)O)NC(=O)[C@H](CCC(=O)O)NC(=O)[C@H](CC(C)C)NC(=O)[C@H](Cc1ccc(O)cc1)NC(=O)[C@H](CO)NC(=O)[C@H](CO)NC(=O)[C@@H](NC(=O)[C@H](CC(=O)O)NC(=O)[C@H](CO)NC(=O)[C@@H](NC(=O)[C@H](Cc1ccccc1)NC(=O)[C@@H](NC(=O)CNC(=O)[C@H](CCC(=O)O)NC(=O)C(C)(C)NC(=O)[C@@H](N)Cc1c[nH]cn1)[C@@H](C)O)[C@@H](C)O)C(C)C)C(=O)N[C@@H](C)C(=O)N[C@@H](Cc1c[nH]c2ccccc12)C(=O)N[C@@H](CC(C)C)C(=O)N[C@H](C(=O)N[C@@H](CCCNC(=N)N)C(=O)NCC(=O)N[C@@H](CCCNC(=N)N)C(=O)NCC(=O)N[C@@H](CCCCNC(=O)CCOCCOCCOCCOCCNC(=O)CC[C@H](NC(=O)[C@H]1CC[C@H](CNC(=O)CCCCCCCCCCCCCCCCCCC(=O)O)CC1)C(=O)O)C(=O)NCC(=O)NCC(=O)N[C@@H](CO)C(=O)N[C@@H](CCCCNC(=O)CCOCCOCCOCCOCCNC(=O)CC[C@H](NC(=O)[C@H]1CC[C@H](CNC(=O)CCCCCCCCCCCCCCCCCCC(=O)O)CC1)C(=O)O)C(=O)O)C(C)C [Example 10, N{Alpha}([Aib8,Glu22,Arg26,Arg34]-GLP-1-(7-37)-peptidyl)-N{Epsilon}3-[2-[2-[2-[2-[[(4S)-4-carboxy-4-[[4-[(19-carboxynonadecanoylamino)methyl]cyclohexanecarbonyl]amino]butanoyl]amino]ethoxy]ethoxy]ethoxy]ethoxy]propanoylLys-Gly-Gly-Ser-N{Epsilon}3-[2-[2-[2-[2-[[(4S)-4-carboxy-4-[[4-[(19-carboxynonadecanoylamino)methyl]cyclohexanecarbonyl]amino]butanoyl]amino]ethoxy]ethoxy]ethoxy]ethoxy]propanoylLys] (H-H[Aib]EGTFTSDVSSYLEEQAAREFIAWLVRGRGK([PEG4-γGlu-Trx-C20 diacid])GGSK([PEG4-γGlu-Trx-C20 diacid])-OH)
  % change in body weight 48 h: −3%
  % change in blood glucose 48 h: −17%
  % change in body weight 96 h: −3%
  % change in blood glucose 96 h: −3%
